For 22 molecules, binding signal results are on record in paper PMC12136788.

B1: chr17:87833181:87833182:-_ENSMUSG00000036438_ENSMUST00000040440|perfect_dup|motif|central (ssRNA)
RNA: GGGAGUUCUACAGUCCGACGAUCAGGGCUUAGAUAUAUCCAGAGUAAGCCACAUGCAACAUGUUACUUGAUCAAUUUUCGGAAAUAAGGUUUUAGGACAAUGACAGUAAGAUAAGGGAAGAAAACAUGGAGGAAUGAAGUCCUCAACAGAGGAUUGAGCAUCA
B2: chr8:101932682:101932683:-_ENSG00000164924_ENST00000353245|hu_mus|FALSE|FALSE (ssRNA)
RNA: GGGAGUUCUACAGUCCGACGAUCGACAUGGAAGCAGUUUUAACACUGGCCCUUCUGAAGCCACAAUGUACCAAAAGUACUAUGCCAAACAUGUGUAACUCAUGUAAAAAUUCCACAUCCCAUAUUGGCCACCUCAAGAUGAAACAACAGAGGAUUGAGCAUCA
B3: chr2:117085000:117085001:+_ENSMUSG00000027349_ENSMUST00000028825|mus_mus|FALSE|FALSE (ssRNA)
RNA: GGGAGUUCUACAGUCCGACGAUCGCGCUCUUUAAUGUCUCCUGAGACGAGUACCGAGUAUGGACAGGCCAUCUCUUUUAAAAACCCACUUAUCUCAAGCUGGAAGCUCUCUAGGUCAUCUCUCCCAGCUGAAGUGAUGCUUUCCAACAGAGGAUUGAGCAUCA
B4: chr6:41757443:41757444:+_ENSG00000214736_ENST00000398881|hu_mus|hu_hu_hu_mus_False|18_68 (ssRNA)
RNA: GGGAGUUCUACAGUCCGACGAUCGAACCGUGCAGAGGCAACAUCUCAGCCGACACUGGGGGAUGGGGGAACAAAAGGGGGGGGUUCAGGCAAGGAGAGGGAGUCAACUUCAGCUGCUCAAACUUCAGGAUCUUGUGGUCACAGCAACAGAGGAUUGAGCAUCA
B5: chr1:171556206:171556207:+_ENSG00000117523_ENST00000495585|hu_hu|FALSE|FALSE (ssRNA)
RNA: GGGAGUUCUACAGUCCGACGAUCGUGCUUGGGGAGUGGUAUGCUGUAAUGGGGGCUGAAGAGUCUGAGGCAAAGCAAUUAGAGGUUGCCCUGUAGAUCCAAAAUUAGGCAAGGAAAGCUGCGAUGCUGGUAAAGGUACUGUAACAACAGAGGAUUGAGCAUCA
B6: chr2:210595268:210595269:+_ENSG00000078018_ENST00000392194|hu_hu|FALSE|FALSE (ssRNA)
RNA: GGGAGUUCUACAGUCCGACGAUCUGUAAAGCCAGUGUCUUCCUGUUGCAAAUGGAAAUCAGGUCAAUUUCUGCAUGUACUAUUCAUUUUUUAAAUAGAAAAUUGUAACAAUUACUACAGUUUGGGGAUGAGAUUAUUUAUUUUCAACAGAGGAUUGAGCAUCA
B7: chr13:85359083:85359084:-_ENSMUSG00000021549_ENSMUST00000109552|mus_hu|motif|central (ssRNA)
RNA: GGGAGUUCUACAGUCCGACGAUCGGGCUCCUUAGCUCCAAAUUCCACAAGAUUUGCUAAGUUCUGCACAGAUUUAGCCACGGAUAUCAGUGUUCUUGCAGCAAUAGGAGAUGGAGAAUCUGAGAUGAUAUUGAACAUCCGUGGCAACAGAGGAUUGAGCAUCA
B8: chr11:118370577:118370578:+_ENSG00000118058_ENST00000534358|hu_hu|FALSE|FALSE (ssRNA)
RNA: GGGAGUUCUACAGUCCGACGAUCCUGAUAUCCAAUAGGAAAGAGCUUAUCUUCACAGUCGGAGAGAUCAUUUAGAAUUCCUAAGCAGUCGAUUGUCAUAGACCCAAUCAUCAUGUGGAUAUUUUCUGGUUCCAAGCCAUUGAGCAACAGAGGAUUGAGCAUCA
B9: chr17:64801638:64801639:+_ENSG00000154229_ENST00000413366|hu_mus|hu_hu_hu_mus_False|1_68 (ssRNA)
RNA: GGGAGUUCUACAGUCCGACGAUCUAUAUAUAUAUAUACAUAUGUACACAUAUAUAGUAAAACCCUAAUCUAUCACGUAAAGUAGCCAUUCAUUUUUAAAAUUACAUCUACAUUAAAAAAUUAAUAUAUCUGAUAGAGUGCCCACAACAGAGGAUUGAGCAUCA
B10: 37163817_37168505_2464_3pUTR_ENSG00000170471_ENST00000397040|human|control|control (ssRNA)
RNA: GGGAGUUCUACAGUCCGACGAUCAGCUGGCCGACUACACUGAUAAACAAUGUAGGUGCACACAGAACUGAUGGCUCGCUUCCGGUCUCCUGAGUCAACCAUCACUUUUACCUUUGCAAGGCCAGAGAGGAGCUCUAGAGCUGCCAACAGAGGAUUGAGCAUCA
B11: chr1:163112212:163112213:-_ENSG00000143248_ENST00000313961|hu_hu|hu_hu_hu_mus_False|8_68 (ssRNA)
RNA: GGGAGUUCUACAGUCCGACGAUCUUUUAUUAUCAGUAAGAGUGAGUUACAUACUAGGCAAAGUAUUGAAUACAAAAAUCAGGAAACAAACACUAUUGGUCCAGAAUUUAAAACUUUAUGAGCGAAGGCUUACAAAUGGACUUACAACAGAGGAUUGAGCAUCA
B12: chr20:44444512:44444513:+_ENSG00000175063_ENST00000356455|hu_mus|motif|central (ssRNA)
RNA: GGGAGUUCUACAGUCCGACGAUCCAGGUAUUUCUUAAAUGCUGUGGGGUUUUUCCAGAGUUCCGCAGCGUGUGUGUUCAAAGGGCGGUCGAUGUUGGGUUCUCCUAGCAGGCUCUGGAUAGAGAGCAAGAUAGUCCUGACAUCCAACAGAGGAUUGAGCAUCA
B13: 56724551_56724671_207_CDS_ENSMUSG00000071054_ENSMUST00000095224|mouse|control|control (ssRNA)
RNA: GGGAGUUCUACAGUCCGACGAUCCCGCGUCCCGGUCUCUGACGCCGCGGAGCUCACGGCCGCCGCGCCCGCCGCACUCGCGUCUCCUAAACCCGACAGAGUCUCCGCCAUUCCAGGGACCCUGGUUCCGUCGCCCACUUCACACAACAGAGGAUUGAGCAUCA
B14: chr13:31711309:31711310:-_ENSG00000120694_ENST00000320027|hu_mus|motif|central (ssRNA)
RNA: GGGAGUUCUACAGUCCGACGAUCAGAGACUACACAGAUUCAAGCUUUUCCUUUUUUCCCCUCAUAAUACACAAAAUUUCGGGACAGUCUUAAAAAAAAGAAAAUAUAAAUAGACUCAGUCUGUUAUACAGGAUCACAUACUAUCAACAGAGGAUUGAGCAUCA
B15: chr9:14812383:14812384:-_ENSMUSG00000031934_ENSMUST00000164273|mus_hu|FALSE|FALSE (ssRNA)
RNA: GGGAGUUCUACAGUCCGACGAUCAUAGCCCAGGUAGAUACACGCUAACAGUAUAAUGAUGAGUGUCAGCAGGCGGCAGCUAAUGUACUUGAUGAUUAAAUUAUUAGAAUUUUUCUUUGUCUUCAAGUACUGCUCCACAAUUGGCAACAGAGGAUUGAGCAUCA
B16: 224577001_224577121_2655_3pUTR_ENSG00000162923_ENST00000295024|human|control|control (ssRNA)
RNA: GGGAGUUCUACAGUCCGACGAUCCGGGCAAGGCUAGAAUCCAUGAACCAAGCUGCAAAGAUCUCAAGCUAAAUAAGGCGGAAAGAUUUGGAGAAACAAAAGAAGGAAAUUCUUUCCUAUCCAAUGUAUACUCUUCAGACUAAUCAACAGAGGAUUGAGCAUCA
B17: chr11:12883819:12883820:+_ENSG00000187079_ENST00000361905|hu_mus|FALSE|FALSE (ssRNA)
RNA: GGGAGUUCUACAGUCCGACGAUCAAUGUGACUAGACACCUGCUUCCUGGUCCUUGUCUUUCCCGUCCUGAGUUUGAUGUAUCUGGCUAUCAAUUCAUUUCUACCAUACAUUUUGCCUUCGUCUGAUAAGAUGAUUUUUCUCCUCAACAGAGGAUUGAGCAUCA
B18: chr9:66341014:66341015:+_ENSMUSG00000038664_ENSMUST00000042824|mus_hu|FALSE|FALSE (ssRNA)
RNA: GGGAGUUCUACAGUCCGACGAUCCCAUGCAGCACUGUGGCAGCGGCCAGCCGAGAUCUGCCGAACAUUUUUCCCUUGCAGACCUGUUACCAGGGUUGGUUCUCGAACAUGGUUGGUAUGGCCUAAGCCGAGCUGCCCUUCUGACAACAGAGGAUUGAGCAUCA
B19: chr3:75345182:75345183:-_ENSMUSG00000027835_ENSMUST00000161137|mus_mus|motif|central (ssRNA)
RNA: GGGAGUUCUACAGUCCGACGAUCAAGUGGUCUCAGCUUCAUUCUUCAUCUCUUCCAUUGUCAUCCUCAUUCAAAAGCCAACGGCAGUAGAAAAAGCAAUGCUAAAAUGCAGAGGAAUCUUCAUUCACUGCCGAAUUUCUUCCCCAACAGAGGAUUGAGCAUCA
B20: 30705002_30707723_1052_CDS_ENSMUSG00000040850_ENSMUST00000041231|mouse|control|control (ssRNA)
RNA: GGGAGUUCUACAGUCCGACGAUCUCUCAGAAUUCUUGUAAAUAUCUUCGGUACAUAUGGAUCCCAAUCUAUGUAUCCUAUAUUAUCUGUAGCCAAUCGAGCAAAGAGAUUUACUAAUUGCCCCUCCCACUGUGGGAGAUUUUGCAACAGAGGAUUGAGCAUCA
B21: 32298048_32364075_478_5pUTR_ENSMUSG00000040451_ENSMUST00000099514|mouse|control|control (ssRNA)
RNA: GGGAGUUCUACAGUCCGACGAUCCUUCUCCGCGUGUUCCAGUAGGUCUCCAUUACCUCAAUCAUGCUGUUACUUUUCUUCAUCAGUCUUUCUUCCGGUCUGUGCUGUCUUGUAUAUUAUAUGCCCGGCUCUGUGCUCCAAAUGCAACAGAGGAUUGAGCAUCA
B22: chr11:77336104:77336105:-_ENSG00000074201_ENST00000525064|hu_mus|hu_hu_hu_mus_False|58_108 (ssRNA)
RNA: GGGAGUUCUACAGUCCGACGAUCCUCGCACAUUGCAGUGAACAUCGCCUCCAAUGCUGACUUAUCACUGGGCACAAAUCUAAAUUCAGAAAUGGGUUCAACAUCAUCAUUGUCUUCCUCAUCUUCAUCAGAGAGAGGUUCUUUCAACAGAGGAUUGAGCAUCA

The other results are listed elsewhere or left out.

The target in this assay is T1, UNK ZnF1-3 (human, UniProt Q9C0B0 31-174).
T1 sequence: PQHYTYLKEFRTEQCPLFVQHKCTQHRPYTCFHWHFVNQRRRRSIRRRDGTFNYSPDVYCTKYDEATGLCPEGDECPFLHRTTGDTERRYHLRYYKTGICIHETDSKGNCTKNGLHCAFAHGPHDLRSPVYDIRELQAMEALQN
Nature of the assay: nsRBNS (natural sequence RNA bind-n-seq); RBNS binding buffer (assumed for nsRBNS): 25 mM Tris pH 7.5, 150 mM KCl, 3 mM MgCl2, 0.01% Triton X-100, 500 ug/ml BSA, 20 U/ml SUPERase-In, 4 C; UNK is unkempt and MSI1 is Musashi-1; names of the RNAs are library labels; protein concentration not given here; high values mean tight binding.
In turn, B1 had a binding signal of 2.55 enrichment R. The value for B2 was 1.29 enrichment R. On to B3, for which the binding signal stood at 0.591 enrichment R. The value for B4 was 2.09 enrichment R; that for B5 was 1.71 enrichment R; that for B6 was 2 enrichment R. The value for B7 was 0.821 enrichment R.

The molecule B8 came in with a binding signal of 1.69 enrichment R. Under B9 stands 1.27 enrichment R; under B10, 1.2 enrichment R. The value for B11 was 0.861 enrichment R; that for B12 was 0.637 enrichment R.

For the molecule B13, the binding signal turned out to be 0.903 enrichment R. As to B14, the binding signal turned out to be 2.18 enrichment R. As for B15, the binding signal came to 1.33 enrichment R. B16 registered a binding signal of 1.48 enrichment R. With B17, the binding signal was 0.417 enrichment R. The value for B18 was 0.633 enrichment R. Under B19 stands 0.96 enrichment R; under B20, 0.711 enrichment R.

Consider B21, for which the binding signal worked out at 0.539 enrichment R.

In turn, B22 gave a binding signal of 1.02 enrichment R.
